# Experimental data reported in PubChem BioAssay AID488969 (Vanderbilt High Throughput Screening Facility, 2010).
# The full ranking holds about 110,000 compounds; the median of “z-score” is about -0.1, and the highest 2% start at about 2. The list shows a part of the results. The source made the active and inactive calls.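 The calls were made as follows: active = z-score in the third read window above 3 or below -3; inactive = the rest.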
# Biological target: Metabotropic glutamate receptor 8 (Rattus norvegicus) (UniProt P70579)
# UniProt P70579, sequence (P70579 whole entry, looked up): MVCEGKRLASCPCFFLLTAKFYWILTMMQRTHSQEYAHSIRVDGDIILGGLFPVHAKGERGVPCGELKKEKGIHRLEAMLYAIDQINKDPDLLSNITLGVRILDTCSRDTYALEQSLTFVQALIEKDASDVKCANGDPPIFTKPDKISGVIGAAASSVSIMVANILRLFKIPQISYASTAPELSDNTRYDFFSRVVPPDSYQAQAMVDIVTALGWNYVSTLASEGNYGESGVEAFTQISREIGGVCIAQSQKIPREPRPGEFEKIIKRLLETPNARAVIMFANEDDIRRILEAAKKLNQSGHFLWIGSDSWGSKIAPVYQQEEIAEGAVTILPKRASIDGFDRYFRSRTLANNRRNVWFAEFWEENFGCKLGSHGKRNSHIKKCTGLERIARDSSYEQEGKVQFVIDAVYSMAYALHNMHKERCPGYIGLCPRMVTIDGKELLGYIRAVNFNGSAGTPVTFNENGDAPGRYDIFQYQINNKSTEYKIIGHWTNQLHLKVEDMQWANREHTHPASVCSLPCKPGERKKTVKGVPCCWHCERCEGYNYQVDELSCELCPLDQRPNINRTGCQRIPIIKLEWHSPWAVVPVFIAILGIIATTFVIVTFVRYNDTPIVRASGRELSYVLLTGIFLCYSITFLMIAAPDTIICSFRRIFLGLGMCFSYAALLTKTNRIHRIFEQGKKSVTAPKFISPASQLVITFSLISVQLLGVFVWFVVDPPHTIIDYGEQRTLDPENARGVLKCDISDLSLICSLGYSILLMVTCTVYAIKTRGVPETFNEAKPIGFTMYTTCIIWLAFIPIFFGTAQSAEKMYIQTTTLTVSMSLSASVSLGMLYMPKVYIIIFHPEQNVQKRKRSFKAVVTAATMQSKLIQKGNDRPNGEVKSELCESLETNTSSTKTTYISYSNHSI
# Test: rat mGluR8 modulators via GIRK flux, primary screen, cell-based, thallium flux, HTS (AID 488969)
# Conditions: HEK293 rat mGluR8, GIRK (G protein-gated inwardly rectifying potassium channel) thallium flux, FluoZin2; at 10 µM; stronger effect = higher value; submaximal glutamate (EC20) added with thallium
row,Structure (SMILES),z-score
1,Cc1ccc(CC(=O)OCC(=O)NC2CCCC(C)C2C)cc1C (stereo not given),0.326
2,O=C(C(Cc1ccccc1)n1cccc1)N1CCN(c2ncccn2)CC1 (stereo not given),-0.381
3,Nc1cc(-c2ccc(Cl)cc2)nn1S(=O)(=O)c1cccc2nsnc12,-0.417
4,O=C(NC1CCCCC1)c1cc(Cl)ccc1[N+](=O)[O-],-0.0951
5,CCCC(c1nnnn1C(C)(C)CC)N(CCCO)Cc1cc2cc(C)cc(C)c2[nH]c1=O (stereo not given),-1.4
6,O=C(CNCCC1=CCCCC1)Nc1ccccc1N1CCCCC1,0.651
7,COc1ccc(P(=O)(COc2ccc([N+](=O)[O-])cc2)c2ccc(OC)cc2)cc1,-0.135
8,Cc1cc(NC(=O)c2cnc3ccccn3c2=O)no1,-0.108
9,Oc1ccc(N=Cc2ccc(-c3cccs3)s2)cc1,0.315
10,Cc1nn(S(=O)(=O)c2ccc(Cl)cc2)c(C)c1Sc1ccc([N+](=O)[O-])cc1,-0.269
11,CCOC(=O)c1sc(NC(=O)CSc2n[nH]c(-c3ccncc3)n2)c(C#N)c1C,-0.25
12,CC(C)CN=C(NS(=O)(=O)c1ccccc1)C(Cl)(Cl)Cl,-0.221
13,CC1(C)C(=O)Nc2ccccc2N1C(=O)COC(=O)c1cc([N+](=O)[O-])ccc1N,-0.325
14,COCCSc1ccccc1C(=O)NCc1ccc(S(N)(=O)=O)cc1,0.373
15,O=C(Nc1nc(-c2ccccc2)cs1)c1cccc([N+](=O)[O-])c1C(=O)O,0.279
16,CCn1nc(C(=O)OC(C(=O)c2c[nH]c3ccccc23)c2ccccc2)c2ccccc2c1=O (stereo not given),-0.494
17,O=C(COC(=O)c1ccccc1C(=O)c1ccccc1)Nc1ccc(SC(F)F)cc1,-0.343
18,O=C(Nc1cccc2nsnc12)c1ccc2c(c1)OCO2,-0.167
19,CCOC(=O)C1CCCN(C(=S)Nc2cccc(Cl)c2)C1 (stereo not given),-0.0944
20,O=C1C2CCCN2C(c2ccccc2)N1c1nccs1 (stereo not given),0.521
21,Cc1ccc(CN2CC34C=CC(O3)C(C(=O)NCc3ccc5c(c3)OCO5)C4C2=O)cc1 (stereo not given),-0.137
22,Cc1ccc2sc(NC(=O)CSc3nc(C)cc(C)c3C#N)nc2c1,0.015

row,Structure (SMILES),z-score
1,Cc1ccc2[nH]c(=O)c(CN(C)C(=O)c3ccccn3)cc2c1,0.194
2,Cc1occc1C(=O)Nc1sc2c(c1C(N)=O)CCC(C(C)(C)C)C2 (stereo not given),0.0299
3,CCCCn1c(=O)n(C)c(=O)c2c3c(sc21)COC(C)(C)C3,0.121
4,COC(=O)c1sc(=S)n(-c2cccc(Cl)c2)c1N,0.107
5,CCCCCCc1cc2cc(-c3nnc(-c4cc(OC)c(OC)c(OC)c4)o3)c(=O)oc2cc1O,active: -4.55
6,CCOC(=O)c1[nH]c(C)c(C(=O)NCCCN2CCOCC2)c1C,0.394
7,C=CCC(NCc1ccco1)c1ccc(OC)c(OC)c1 (stereo not given),-0.327
8,CCc1ccc(NC(=O)c2cccnc2)cc1,-0.123
9,CCCCCOc1ccc(N2C(=O)CC(N(O)c3ccccc3)C2=O)cc1 (stereo not given),-0.221
10,Cc1cc2nc(-c3ccc(SCC(=O)N4CCOCC4)nc3)[nH]c2cc1C,-0.284
11,Cc1cc(=O)oc2cc(OCC(=O)N3CCOCC3)ccc12,0.0972
12,O=C(N/N=C/c1c[nH]c2ccccc12)c1cccc([N+](=O)[O-])c1,-0.556
13,O=c1[nH]c(NCCO)nc2ncn(Cc3ccccc3)c12,0.0474
14,CCOC(=O)C(C)Sc1nnc(Cn2c(=O)sc3ccccc32)n1-c1ccccc1 (stereo not given),-0.36
15,COC(=O)Nc1ccc(S(=O)(=O)Nc2ccccc2F)cc1,0.00713
16,O=C(Nc1nnc(C2COc3ccccc3O2)o1)c1ccc(F)cc1 (stereo not given),1.28
17,COc1cc(OC)nc(NC(C)=O)n1,0.238
18,Cc1ccc(O)c(C(=O)c2cnc3c(c2)CN(CCC(C)C)C(=O)N3)c1,0.371
19,COc1ccc(OC)c(/C=N/NC(=O)c2csc3ccccc23)c1,-0.183
20,COc1cc2c(cc1OC)CN(C(=O)CSc1nnc(C)s1)CC2,-0.184
21,CCCC(=O)Nc1cccc(NC(=O)c2ccc3c(c2)OCO3)c1,-0.181
22,CC(NC(=O)c1ccc(Cn2cc([N+](=O)[O-])cn2)o1)c1ccccc1 (stereo not given),0.0431

row,Structure (SMILES),z-score
1,Cc1ccc(NC(=O)NCCN2C(=O)C3C4C=CC(C4)C3C2=O)cc1 (stereo not given),0.072
2,CN(C)S(=O)(=O)N1CCN(C(=O)N2CCCCCC2)CC1,-0.197
3,COc1cccc(OC)c1C(=O)NC(=S)Nc1ccc2oc(=O)ccc2c1,-0.2
4,CCC(=O)Nc1ccc(NC(=O)CSc2nc3cc4c(cc3cc2C)CCC4)cc1,-0.0861
5,Cc1ccc(CNc2cc(-c3nn4c(C)nnc4s3)ccc2C)s1,-0.352
6,O=C(c1ccc2c(c1)c(=O)oc1ccccc12)N1CCCCC1,-0.151
7,COc1ccccc1CN=c1c([N+](=O)[O-])nn(-c2ccc3c(c2)OCCO3)n1O,-0.0943
8,CSc1nnc([C@@H](NC(=O)OC(C)(C)C)C(C)C)o1,1.74
9,COC(=O)C1=NN(C(=O)c2ccc(Cl)cc2)C(O)(c2ccccc2)C1 (stereo not given),active: 11.5
10,CCOC(=O)c1sc(N(C)C(C)=O)nc1C,-0.141
11,CCOc1cc(C(=O)Nc2cc(C)on2)cc(OCC)c1OCC,-0.128
12,CCOC(=O)N1CCN(C(=O)C2CCC(CNS(=O)(=O)c3ccccc3)CC2)CC1 (stereo not given),-0.0503
13,COc1cccc(Oc2ccc(C(F)(F)F)cc2N)c1,-0.291
14,CCC(N)C12CC3CC(CC(O)(C3)C1)C2 (stereo not given),-0.212
15,CNC(=S)N1N=C(c2ccc(C)cc2)CC1c1ccc(Br)cc1 (stereo not given),-0.0362
16,O=C(Cn1cnc2cc([N+](=O)[O-])ccc2c1=O)Nc1ccc2c(c1)CCC2,-0.0344
17,Cc1ccc(S(=O)(=O)NC2=C(N3CCN(c4ccccc4F)CC3)C(=O)c3ccccc3C2=O)cc1,0.268
18,O=C(N/N=C/c1ccc2c(c1)OCO2)c1cc(-c2ccc(F)cc2)nc2ccccc12,-0.0177
19,N#C/C(=C/c1cn(CC(=O)O)c2ccccc12)c1ccc(F)cc1,-0.58
20,Cc1cccc(C(=O)NCC2CCCO2)c1 (stereo not given),2.21
21,CN(CC(=O)Nc1ccc(C(N)=O)cc1)CC(=O)Nc1ccccc1Cl,-0.217
22,Cc1c(C(=O)O)c2cc(O)ccc2n1-c1ccccc1,0.362

row,Structure (SMILES),z-score
1,O=C(O)CCc1ccc(-c2cccs2)n1NC(=O)c1ccco1,0.718
2,COc1cc(/C=C/C(=O)Nc2ccccc2C(F)(F)F)cc(OC)c1OC,-0.503
3,O=C1C2C3C=CC(CC3)C2C(=O)N1c1nccs1 (stereo not given),-0.26
4,CCC(=O)Nc1ccc(Nc2nc(C)c([N+](=O)[O-])c(Nc3ccc(NC(=O)CC)cc3)n2)cc1,-0.755
5,Cc1ccc(COc2cccc3c2CCN(Cc2ccc(F)cc2)C3=O)cc1,1.1
6,O=C(Cc1ccccc1)Nc1ccc(N2CCCC2)cc1,-0.805
7,CCc1sc(N)nc1-c1ccccc1,-0.082
8,CCNC(=S)N1CCn2c(nc3ccccc32)C1,-0.38
9,CCN(CC)S(=O)(=O)c1ccc(OC)c(NC(=S)Nc2cc(C)ccc2C)c1,0.0642
10,CSc1n[nH]c(-c2sccc2OCc2ccc(C)cc2)n1,0.203
11,Oc1ccc2ccccc2c1C=Nc1ccc(N2CCOCC2)cc1,-0.644
12,O=C(NCC(c1ccco1)N1CCN(c2ccccc2)CC1)OCc1ccccc1 (stereo not given),-0.199
13,COC(=O)c1ccc(C(=O)OC)c(NC(=O)CSc2nnc(-c3ccccc3Cl)o2)c1,-0.149
14,CCCc1cc(=O)[nH]c(/N=C(/NC(=O)C(C)N2C(=O)c3ccccc3C2=O)Nc2ccccc2)n1 (stereo not given),-0.099
15,Cc1nn(Cc2ccc(C(=O)n3cccn3)o2)c(C)c1Br,-0.832
16,COC(=O)c1c(C(=O)OC)c(-c2ccc(C)cc2)n2c1CCC2,-1.36
17,Cc1cc(C)cc(N(CC(=O)N2CC=C(c3ccccc3)CC2)S(=O)(=O)c2c(C)noc2C)c1,0.0366
18,Cc1noc(C)c1C(=O)NCCC1=CCCCC1,-0.0916
19,CC1=Nc2cccc3cccc(c23)N1C,-0.00241
20,CCOCCCNC(=O)Cc1c(C(=O)O)[nH]c2ccc(Cl)cc12,0.12
21,COc1ccc(Nc2nnc(SCC(=O)Nc3cc(C)on3)s2)cc1,-1.08
22,CCOc1ccc2nc(SC3CC(=O)N(c4ccccc4)C3=O)sc2c1 (stereo not given),0.171

row,Structure (SMILES),z-score
1,CCOCC(=O)N1CCN(c2ccc(F)cc2)CC1,0.0288
2,Cc1ccc(CCc2nnc(SCC(=O)Nc3cc(Cl)ccc3Cl)n2-c2ccccc2)o1,-0.585
3,COc1ccc(N2CCN(C(CNC(=O)OCc3ccccc3)c3ccco3)CC2)cc1 (stereo not given),-0.203
4,c1ccc(C2=Nc3cccc4cccc(c34)N2)cc1,-0.647
5,CCC(C)N=C1SCC(C)(/C=N/O)S1 (stereo not given),-0.0708
6,COc1ccc(C)cc1NC(=O)CN(Cc1nnc(-c2ccc(Cl)cc2)o1)C1CCCC1,0.145
7,O=C(Cn1cc2c(n1)CCCC2)N1CCCC1,0.266
8,COc1ccc(/C=N/NC(=S)NCc2ccccc2)cc1OC,-0.135
9,CC1CC(c2ccccc2)n2nc(NC(=O)CCc3ccccc3)nc2N1 (stereo not given),0.229
10,O=C(O)C(Oc1ccc2c3c(c(=O)oc2c1)CCC3)c1ccccc1 (stereo not given),-0.902
11,Cc1cccc(Cn2c(=O)n(-c3ccc(CC(=O)NCc4ccco4)cc3)c(=O)c3sccc32)c1,-0.101
12,Clc1ccccc1Cn1nnc2c(N3CCOCC3)nc(C3CC3)nc21,0.257
13,O=C(COc1ccccc1)Nc1ccc2c(c1)Cc1cc(NC(=O)COc3ccccc3)ccc1-2,-0.155
14,Cc1nn(-c2ccccc2C(=O)O)c(=O)c2ccccc12,0.0122
15,Cc1ccc(O)c(N=Cc2ccc(C)s2)c1,-0.0821
16,Cn1/c(=N/NC(=O)c2cccc(OC(F)F)c2)sc2ccccc21,0.439
17,O=C(CSc1nnc(-c2cccnc2)n1-c1ccc(F)cc1)NCc1ccc2c(c1)OCO2,-0.123
18,Cc1ccc(CNC(=O)c2cc3c(=O)n(C)c4ccccc4c3n2C)o1,-0.2
19,CC(C)(C)n1ncc2c(=O)n(CC(=O)NCc3ccco3)cnc21,-0.0912
20,O=S(=O)(/N=C(\c1ccccc1)N1CCOCC1)c1cccs1,-0.275
21,CCCOC(=O)C1[C@H]2C(=O)N(CC3CCCO3)C[C@]23C=C[C@H]1O3 (stereo not given in full),0.0385
22,O=C(Nc1ccccc1N1CCCC1)c1ccc(Br)o1,-0.726
